Assay results reported in PubChem BioAssay AID1347073 (National Center for Advancing Translational Sciences (NCATS), 2019).
Among all 45,000 compounds or so, about 200 (0.44%) were called active. Not shown: some 7% with an inconclusive outcome. The call rests on the fitted dose curve; in most records, active means well fitted activation curve with a large enough effect; inconclusive means small, poorly fitted or top-dose-only effect; inactive means no such curve, though single readings can be large or run the other way. The list shows a part of the results.

assay: qHTS of TDP-43 Inhibitors: NCGC Sytravon Library Screen; conditions: yeast TDP-43 toxicity rescue, BacTiter-Glo growth, 24 h; series mostly up to 46.1 µM; growth rescue (activation): at the top concentration; further: 0% is about no effect; nearly all actives have a fitted effect of over 55% in size
Procedure, shortened: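 TDP-43-expressing yeast, pregrown in raffinose, seeded at OD600 0.02 in galactose medium with compound for 24 hr at 30 deg C. Growth read by BacTiter-Glo luminescence, so rescue of toxicity appears as activation.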

Structure (SMILES)	growth rescue (activation)
Cc1ccc(-c2c[n+](CC(=O)Nc3nc(-c4ccc(F)cc4)cs3)c3n2CCC3)cc1	inactive: 16.4%
CCN(CC)C(=O)CSc1ncnc2sccc12	inactive: 7.52%
CN(C)S(=O)(=O)c1cccc(NC(=S)NCc2ccco2)c1	inactive: 7.42%
Cc1ccc(-c2csc(Cc3nc(-c4ccc5c(c4)CCC(=O)N5)cs3)n2)cc1	inactive: 7.6%
COc1ccccc1C(=O)CSc1nccn1C	inactive: -19.2%
COc1ccc(-c2onc3ccc(Br)cc23)cc1	inactive: 11.3%
C=CCn1c(SCC(=O)NCC2CCCO2)nc2scc(-c3ccc(OC)cc3)c2c1=O (stereo unspecified)	inactive: 27.9%
CCN(/C(N)=N/c1nc(C)cc(C)n1)c1ccccc1	inactive: 0.575%
COc1ccc(N=C(c2ccccc2)c2c(C)[nH]n(-c3ccccc3)c2=O)c(OC)c1	inactive: -9.12%
COc1ccccc1C(=O)N/C(=C/c1ccccc1)C(=O)Nc1ccc(C(=O)O)cc1	inactive: 4.28%
N#CCCN(C(=O)COC(=O)CCc1ccccc1)c1ccccc1	inactive: 8.47%
Cc1c2ccccc2cc[n+]1CCCS(=O)(=O)[O-]	inactive: -19.2%
O=C(CN1CCCCCC1)Nc1ccccc1OC(F)F	inactive: -11.2%
Cc1ccc(C)c(OCC(O)CN2CCN(CCN3C(=O)c4cccc5cccc(c45)C3=O)CC2)c1 (stereo unspecified)	inactive: -11.9%
COc1ccc(Cl)cc1Nc1nc2ccc(C)cc2n2cnnc12	inactive: -11.3%
Cc1ccc(-n2c(SCC(N)=O)nc3c(oc4ccccc43)c2=O)cc1	inactive: -2.13%
COCCn1c(C)cc(C(=O)CN2c3cccc4cccc(c34)S2(=O)=O)c1C	inactive: 18.3%
CCCCCCCCC1=NCCc2c1[nH]c1ccccc21	inactive: -0.638%
CCc1cc2c(=O)c(-c3ccc4c(c3)OCCO4)c(C)oc2cc1OS(C)(=O)=O	inactive: 0.278%
CCN(c1ccccc1)c1nc2nonc2nc1NCCO	inactive: -1.47%
COc1ccc(C2C(C(=O)O)CCC(=O)N2c2ccc(C)cc2)cc1OC (stereo unspecified)	inactive: -5.31%
COCCCN(C(=S)Nc1ccc(OC)cc1)C(C)c1ccncc1 (stereo unspecified)	inactive: -18.5%
C/C(=N\Nc1nc(-c2ccccc2O)nc2ccccc12)c1ccccc1	inactive: 20.6%
Cc1nnc(SC(C(=O)Nc2cc(Cl)cc(Cl)c2)c2ccccc2)[nH]c1=O (stereo unspecified)	inactive: 5.57%

Structure (SMILES)	growth rescue (activation)
COc1ccc(CNCC(O)(c2ccccc2)c2ccccc2)cc1OC	inactive: 8.17%
Cc1c(C(=O)Nc2cccc(Cl)c2)cn2c(nc3ccccc32)c1C#N	inactive: 5.08%
CNc1ccccc1C(C)(C)c1cc(-c2cccc(OC)c2)no1	inactive: 5.58%
CC(C)OCCCNC(=O)C1CCN(S(=O)(=O)N2CCCC2)CC1	inactive: -0.767%
CC1CCN(C(=O)C2CCN(S(=O)(=O)c3ccc(-n4cnnn4)cc3)CC2)CC1	inactive: 11.8%
O=C(Nc1ccc(F)cc1)c1ccc2snnc2c1	inactive: 13.5%
COc1cccc(C(CNC(=O)c2ccc(Cl)c(S(=O)(=O)N3CCCC3)c2)N(C)C)c1 (stereo unspecified)	inactive: 36.4%
CC1CCCCC1NC(=O)CSc1nnc(CC(=O)Nc2ccccc2F)n1C (stereo unspecified)	inactive: 4.43%
CC(=O)N/N=C/c1cc(C(C)C)cc(/C=N/NC(C)=O)c1O	inactive: -23.9%
CC(=O)NCC(=O)N(C)C(C(=O)Nc1ccc2c(c1)OCCO2)c1ccccc1 (stereo unspecified)	inactive: 36.4%
COc1ccccc1NC(=O)C(=O)N/N=C/c1cccs1	inactive: -1.66%
Cc1cc(C(=O)N/N=C/c2cc(Br)cc(Br)c2OC(=O)c2cccc(F)c2)n[nH]1	inactive: 10.4%
CCCCc1ccc(NC(=O)COc2ccc(C(=O)Nc3ccccc3OCC)cc2)cc1	inactive: 11.3%
O=C(NCCN1CCN(c2ccccc2)CC1)c1ccccc1F	inactive: 3.35%
Cc1cc(C)cc(NC(=O)CNC(c2ccccc2)c2ccccc2)c1	inactive: -18.7%
Cc1ccc(C(=O)c2ccc(C)cc2)cc1	inactive: -8.64%
COCCSc1ccccc1C(=O)Nc1ccccc1C#N	inactive: 0.584%
CC(C)N1CCc2c(sc(NC(=S)NC(=O)c3ccccc3)c2C#N)C1	inactive: -16.7%
Cc1cccc(NC(=O)CSc2nc3sc(C)cc3c(=O)n2C)c1	inactive: -2.82%
Cc1ccc(-c2nn(-c3ccccn3)c(=O)c3ccccc23)cc1	inactive: -24.9%
O=C(NC1CC1)C1CCN(C2CCN(C(=O)CC3=CCCCC3)CC2)CC1	inactive: -5.11%
COc1ccc(OC)c(/C=C2\SC(=S)N(NS(=O)(=O)c3ccc(C)cc3)C2=O)c1	inactive: -10.9%
Cc1ccc(C(CC(=O)c2ccc(Cl)cc2)C(=O)O)cc1 (stereo unspecified)	inactive: 4.44%
CCN(CC(=O)NCc1ccncc1)S(=O)(=O)c1cc(Cl)ccc1Cl	inactive: 4.92%

Structure (SMILES)	growth rescue (activation)
Nc1nnc(-c2cccc(F)c2)s1	inactive: -4.41%
O=C(Nc1cccc(Cl)c1)Nc1nnc(CSCCOc2ccc(Cl)cc2)s1	inactive: 10.6%
COc1cccc(OCc2nc3ccccc3n2C)c1	inactive: 27.3%
CC(=O)c1cccc(NC(=O)COC(=O)CCC(=O)c2ccc(F)cc2)c1	inactive: 10.4%
Oc1ccc2ccccc2c1C=Nc1ccccc1	inactive: -31.1%
COc1ccccc1N1CCN(C(=O)CCCCCn2c(=O)[nH]c3ccsc3c2=O)CC1	inactive: 15.4%
N#C/C(=C\c1ccc(F)cc1)C(=O)Nc1ccccn1	inactive: -30.5%
C=CC[C@H]1CC(C)=C[C@H](CC=C)N1	inactive: 12.5%
O=C(Nc1ccccc1)Nc1nnc(CSCc2ccccc2Cl)s1	inactive: 4.67%
CCc1cccc(CC)c1NC(=O)C1CN(S(=O)(=O)c2ccccc2)CCN1S(=O)(=O)c1ccccc1 (stereo unspecified)	inactive: 18%
CCCn1c(N)c(N(CCOC)C(=O)c2ccccc2)c(=O)[nH]c1=O	inactive: -1.35%
Cc1cc(C)nc(N2CCCC(C(=O)NNC(=O)c3ccncc3)C2)n1 (stereo unspecified)	inactive: 3.28%
O=C1c2ccccc2C(=O)N1CCCCCc1nc(-c2ccccc2)no1	inactive: 11.9%
CCn1cc(C(=O)NCc2ccco2)c(=O)c2cc(S(=O)(=O)N3CCCC3)ccc21	inactive: 13.5%
O=C(c1cc(-c2ccccc2O)on1)N1CCOCC1	inactive: -4.62%
CCOc1ccc(-c2cc(C(=O)NCc3ccc(C(F)(F)F)cc3)[nH]n2)c(C)c1	inactive: 18.1%
COc1ccccc1CN(C)C(=O)CNC(=O)c1cccc(Cl)c1	inactive: 15%
Cc1ccc(CN2CCN(/N=C/c3ccc(C(F)(F)F)cc3)CC2)cc1	inactive: 6.38%
COc1ccc(CCNC(=O)CC2SC(N)=NC2=O)cc1OC (stereo unspecified)	inactive: 13.6%
Cc1ccc(C)c(OCCC(=O)OCC(=O)NC(=O)NC2CCCCC2)c1	inactive: 3.18%
O=C(NCC1(c2ccccc2)CCCC1)c1ccc(Br)cc1	inactive: 6.48%
CCOc1ccc(S(=O)(=O)N2CCC(C(=O)NCC3CCCO3)CC2)cc1Cl (stereo unspecified)	inactive: -0.292%
CCc1sc(C(=O)Nc2ncccc2C)cc1C	inactive: 18.9%
